± gives the standard error. This sample is rich in variants without activity.
B1: glmS ribozyme (parent)
chain: AUAAAAGCGCCAGAACUACAGAAAUGUAGUUGACGAGGAGGAGGUUUAUCGAAUUUUCGGCGGAUGCCUCCAAA

Variants of: B1
Test: self-cleavage kobs at 2500 uM GlcN6P; higher = faster cleavage; RNA array
Settings: with glucosamine-6-phosphate
Procedure, shortened: (§1)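 The measurements used barcoded ribozyme variants on sequenced MiSeq chips, transcribed in situ by E. coli RNA polymerase and tracked at 37 °C with a hybridised Cy3 probe. Glucosamine-6-phosphate, 40 μM to 10 mM in HEPES/KCl/Mg(OAc)2 buffer, was flowed in while tiles were imaged over ~14 h. Baseline-normalised signals, also normalised to non-cleaving reference variants, gave per-tile medians that were fit to one- or two-exponential decays for kobs. kcat and KM resulted from weighted Michaelis–Menten fits across concentrations.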

Row | Variant | self-cleavage kobs at 2500 uM GlcN6P [s⁻¹]
1 | U31A G35A U47G U65G | < 1e-05
2 | U30G G44U G59C | < 1e-05
3 | A15G G59U G63U | < 1e-05
4 | C16G G40U U69G | < 1e-05
5 | A33U G35U G51C A64U | < 1e-05
6 | G32U C34U G35U G43U C61U | < 1e-05
7 | G37A G41U C67U | < 1e-05
8 | C16A A36G A48G A53C | < 1e-05
9 | G37A G43U G62U | < 1e-05
10 | C16U U30G G32U A48G | < 1e-05
11 | G29U G35A A53C | < 1e-05
12 | A36U G44C U46G | < 1e-05
13 | C34U G40U A64C | < 1e-05
14 | C34U U45A C67U | < 1e-05
15 | A23C G29C A36C A39G A48C G59A | < 1e-05
16 | U30G U31A G35A A39G G51C G59A | < 1e-05
17 | G32C G35C U56C | < 1e-05
18 | C34A A52C C70U | < 1e-05
19 | G32C G38C G51A | < 1e-05
20 | A15G G41U G51U C70G | < 1e-05
21 | G32U U49C U57C C71U | < 1e-05
22 | A33C A42G U49A | < 1e-05
23 | C34U A36G A53C A64U C70G | < 1e-05
24 | C16U U45A A48U G62A C68A | < 1e-05

Row | Variant | self-cleavage kobs at 2500 uM GlcN6P [s⁻¹]
25 | C16A U30C | 2.62e-05 ± 9e-06
26 | C16U G51U A52C C68A C70U C71U | < 1e-05
27 | G29C A48G G60U | < 1e-05
28 | C34U G41U A52G G63U | < 1e-05
29 | G35U G40U C67G | < 1e-05
30 | A15G G44U C50U A64U | < 1e-05
31 | G29A G44C C58A G62U | < 1e-05
32 | G29C A39C C58G | < 1e-05
33 | C34U G40A U57A | < 1e-05
34 | C16G G32C G41U U69C | < 1e-05
35 | C34U U47A G59U A64C C70U | < 1e-05
36 | U31G G35A C61G | < 1e-05
37 | G32U C34A G41A G60U C70G | < 1e-05
38 | A36G U46A C70A | < 1e-05
39 | G29A G44U A53U | < 1e-05
40 | C16A A39G U69G | 0.000118 ± 3.8e-05
41 | A33G C50U U54A | < 1e-05
42 | A15U G41A U55A C61G | < 1e-05
43 | G32A U45A C61G | < 1e-05
44 | A33G G35A G43C G60A C71G | < 1e-05
45 | C34A G38U G40A G44C U55C C70G | < 1e-05
46 | A36C G63A U65A | < 1e-05
47 | A33C G41A A52U C68U | < 1e-05
48 | C34A U69G | < 1e-05

Row | Variant | self-cleavage kobs at 2500 uM GlcN6P [s⁻¹]
49 | G29A U45G A52C | < 1e-05
50 | C16U G38A G43U | < 1e-05
51 | C34G G43C U54C | < 1e-05
52 | A33U G41U G60U | < 1e-05
53 | A36C C50U G59A | < 1e-05
54 | U30A C34G | < 1e-05
55 | G32U C34U A42G C61A | < 1e-05
56 | A36G G40C G60C | < 1e-05
57 | U31C G35C A36C | < 1e-05
58 | C34G A53U G59A C70U | < 1e-05
59 | G32C A39C C61G C70U | < 1e-05
60 | C34U A36C A64C | < 1e-05
61 | A36U G41U A42C | < 1e-05
62 | C16G G32C G40U U69C | < 1e-05
63 | G35U U57G C70U | < 1e-05
64 | C16A G43C U45C G62A | < 1e-05
65 | G35U A52C U54G | < 1e-05
66 | A33U A39U C58A | < 1e-05
67 | G29U G32U A36U C61A C71G | < 1e-05
68 | U30A G32C | 6.18e-05 ± 2.8e-05
69 | A33C U55C U56A G59A A64U C71U | < 1e-05
70 | A15G U31C G41U U47G G59A C67U | < 1e-05
71 | G35A G41A U54G | < 1e-05
72 | C34A G66A | < 1e-05

Row | Variant | self-cleavage kobs at 2500 uM GlcN6P [s⁻¹]
73 | C16G G35A G60C | < 1e-05
74 | A33U U49C G51C A52C C67G | < 1e-05
75 | A36C G43C C50G C68A | < 1e-05
76 | G29C U31A | 0.000502 ± 0.0001
77 | G35A G44U G51C C67G | < 1e-05
78 | U31G G41A G63U | < 1e-05
79 | A15U G29U A33U G44C A53G U55C | < 1e-05
80 | A33C A53G U55G | 0.000103 ± 2.8e-05
81 | G32C G41A G44U C50G U69C | < 1e-05
82 | A33C G40A A52U C61G | < 1e-05
83 | A36C G59A | < 1e-05
84 | C34U U55C C61G | < 1e-05
85 | C34U G35A | < 1e-05
86 | G35C G60A G63C A64G | < 1e-05
87 | G29U G37A G59C | < 1e-05
88 | A15U G44A G51A A53U | < 1e-05
89 | U30A C34G C50U G63A | < 1e-05
90 | G35A G40U G43C C71G | < 1e-05
91 | A33U G37A U55A C61U | < 1e-05
92 | G35C A42U A64G | < 1e-05
93 | G29U A42U G51A | < 1e-05
94 | U31C A36G G41A G60U | < 1e-05
95 | G29U A64G C67G | 6.02e-05 ± 1.3e-05
96 | C16G C50A C70A | 8.7e-05 ± 2.4e-05

Row | Variant | self-cleavage kobs at 2500 uM GlcN6P [s⁻¹]
97 | A15U A33C G38C U46G U57G | < 1e-05
98 | A15U G40A G41U G66A C67G | < 1e-05
99 | C16G G43A U57A G66U U69A | < 1e-05
100 | G35A A53U C58U | < 1e-05
101 | G32C C61U A64G | < 1e-05
102 | G32C A42G U46A | < 1e-05
103 | A36U U45G U56A A64G G66C | < 1e-05
104 | A33C G41U A42C A64G C68U | < 1e-05
105 | G35U A36G U65C | < 1e-05
106 | C16U G43A C67A U69A | 6.4e-05 ± 2.1e-05
107 | A15G G44C | 0.00014 ± 4.2e-05
108 | G29C C50U C68A | 7.07e-05 ± 2.7e-05
109 | C16A G66A C71G | 5.24e-05 ± 2.5e-05
110 | A33G G66C | < 1e-05
111 | G29U C50U C61U | < 1e-05
112 | A33C U56C G63U | < 1e-05
113 | G32C U56C U57C G66U | < 1e-05
114 | G29A U30C C34U G43U U47G C70U | < 1e-05
115 | C16U G43U | 2.81e-05 ± 1.3e-05
116 | G29C C58G G59C C61A G63A | < 1e-05
117 | C16A U49C G59U U69A | < 1e-05
118 | C34A U57C G60C | < 1e-05
119 | G29C G38U G40C C50G | < 1e-05
120 | G29A G38U U46G | < 1e-05

Row | Variant | self-cleavage kobs at 2500 uM GlcN6P [s⁻¹]
121 | G35U G60C C68U | < 1e-05
122 | U30G U49G U54A | 4.83e-05 ± 2.3e-05
123 | G35A A42U | < 1e-05
124 | A36G G38U U55A | < 1e-05
125 | A36C U57C G59C C61A U65C | < 1e-05
126 | G37A C68A C70G | < 1e-05
127 | G32C G38U C58G | < 1e-05
128 | A36G G41U U49A G51U A64G | < 1e-05
129 | C34U G44U U49C G59A C61A | < 1e-05
130 | C34U C58U U65A | < 1e-05
131 | G29A G35A G60C C67U | < 1e-05
132 | A15U C34U U55C C70A | < 1e-05
133 | G37A C58A U65A C67U | < 1e-05
134 | U31G A33G A36G U54C C67U | < 1e-05
135 | A15U G29A A33G | < 1e-05
136 | U30G G63C A64U | < 1e-05
137 | U30G A39U A52C G60U | < 1e-05
138 | G29U U30C U45G | < 1e-05
139 | U31C G35C U55G | < 1e-05
140 | G32C G60A C61G | < 1e-05
141 | U31C C34U U55A G62C U65G | < 1e-05
142 | G32C U46C C50U U65C | < 1e-05
143 | G37A A42C U46C U55C | < 1e-05
144 | U31C G59A G66U | < 1e-05

Row | Variant | self-cleavage kobs at 2500 uM GlcN6P [s⁻¹]
145 | U31G G41U C58G | < 1e-05
146 | C16U C50G U55C | 7.17e-05 ± 2.1e-05
147 | U31G C34G U46C C67U | < 1e-05
148 | A36G C50G C67G | 0.000124 ± 5.6e-05
149 | C16A U31A A39G U57C G60U | < 1e-05
150 | C34G G62U C67G | < 1e-05
151 | A33C G35U A53G U54C | < 1e-05
152 | G35C U49G C50G C70G | < 1e-05
153 | A33G G44A U47A | < 1e-05
154 | A15G U49C C58U G60C | < 1e-05
155 | U31G C34A G41U | < 1e-05
156 | A36G U45G C67A | < 1e-05
157 | G29A G32U G60C | < 1e-05
158 | C16G A42U G44A U54A U65C C68U | < 1e-05
159 | U31G G32A U46G A52U | < 1e-05
160 | G35U G38A A53U | < 1e-05
161 | G37A G41C U47G A48G | < 1e-05
162 | U31A A39C G63C | < 1e-05

Variants of: B1
Test: self-cleavage kobs at 10000 uM GlcN6P; higher = faster cleavage; RNA array
Settings: with glucosamine-6-phosphate
Procedure, shortened: as §1

Row | Variant | self-cleavage kobs at 10000 uM GlcN6P [s⁻¹]
163 | G37A G41U C67U | < 1e-05
164 | C16A U30C | 2.12e-05 ± 8.1e-06
165 | U30A G32C | 0.000203 ± 5.8e-05
166 | G29C U31A | 0.000731 ± 0.00017
167 | A33C A53G U55G | 0.000163 ± 2.9e-05
168 | A36C G59A | < 1e-05
169 | A15G G44C | 0.000166 ± 3.2e-05
170 | C16U G43U | 3.73e-05 ± 1e-05
171 | C16A U49C G59U U69A | < 1e-05
172 | A36C U57C G59C C61A U65C | < 1e-05
173 | A36G G41U U49A G51U A64G | < 1e-05
174 | U30G G63C A64U | < 1e-05
175 | G35U G38A A53U | < 1e-05

From the supplement of paper PMC7125110
